# PubChem BioAssay AID1460 (National Center for Advancing Translational Sciences (NCATS), 2008)
# The campaign covered roughly 270,000 compounds. About 5,800 (2.1%) were called active. Inconclusive means that the source gave no clear call. Such entries were picked first, then a sample of the others. Calls follow the shape of the dose curve; as a rule, active = well fitted inhibition curve with a large enough effect; inconclusive = small, poorly fitted or top-dose-only effect; inactive = flat fitted curve, though single readings scatter. A potency beside an inconclusive call is a rough fit, not a confirmed value.
# Target: Microtubule-associated protein tau (Homo sapiens) (UniProt P10636)
# Experiment: qHTS for Inhibitors of Tau Fibril Formation, Thioflavin T Binding; also: nearly all actives have a fitted effect of over 55% in size
# Settings: recombinant tau K18 P301L (four-repeat tau fragment), heparin-induced fibrillization, ThT fluorescence; series mostly up to 57.4 µM; activity, negative = inhibition: at the top concentration
# Outline: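 Tau K18 P301L fragment (15 uM unlabeled plus 0.24 uM Alexa 594-labeled) in 100 mM sodium acetate pH 7 with compound, fibrillization induced by 20 uM heparin for 6 hr at 37 C. Thioflavin T (30 uM) added, fluorescence read after 1 hr (ex 450, em 510 nm).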
# % is scaled to controls: 0 for no effect and ±100 for the full control effect; potency is read from the fitted curve at half-maximal effect; tags tell the direction and shape of the fitted curve.
# UniProt P10636, sequence (P10636 whole entry, looked up): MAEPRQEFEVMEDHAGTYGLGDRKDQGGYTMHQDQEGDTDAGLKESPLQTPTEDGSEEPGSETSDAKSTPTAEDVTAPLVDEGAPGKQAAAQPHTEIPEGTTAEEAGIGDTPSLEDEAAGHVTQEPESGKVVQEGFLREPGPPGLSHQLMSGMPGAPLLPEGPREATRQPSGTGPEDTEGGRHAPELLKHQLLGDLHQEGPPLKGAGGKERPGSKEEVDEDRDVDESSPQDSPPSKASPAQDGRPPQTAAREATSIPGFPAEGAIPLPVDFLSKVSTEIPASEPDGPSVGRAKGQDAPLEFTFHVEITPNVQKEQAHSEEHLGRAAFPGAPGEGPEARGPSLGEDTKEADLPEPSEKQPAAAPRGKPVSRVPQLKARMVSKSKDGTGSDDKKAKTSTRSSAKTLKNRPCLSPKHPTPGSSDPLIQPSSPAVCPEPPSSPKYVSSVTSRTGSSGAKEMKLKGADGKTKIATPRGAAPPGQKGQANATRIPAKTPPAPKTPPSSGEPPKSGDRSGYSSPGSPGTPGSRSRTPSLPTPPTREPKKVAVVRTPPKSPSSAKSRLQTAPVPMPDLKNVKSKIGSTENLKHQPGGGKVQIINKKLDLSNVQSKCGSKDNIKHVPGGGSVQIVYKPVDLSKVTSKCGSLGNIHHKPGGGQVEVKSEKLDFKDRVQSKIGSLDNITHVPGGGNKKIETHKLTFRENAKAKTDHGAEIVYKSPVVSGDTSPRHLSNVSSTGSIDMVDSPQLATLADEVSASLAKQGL
Compound,Potency,"activity, negative = inhibition"
Cc1ccc(CSc2nc3ccc(NC(=O)COc4ccccc4F)cc3s2)cc1,"inconclusive: 2.24 µM [inhibitor, partial curve]",–
CCOc1ccccc1NC(=O)Cn1nnc2sc3c(c2c1=O)CCC(C(C)(C)C)C3 (stereo unspecified),–,inactive: -7.6%
Cc1ccc(NC(=S)c2ccc(N(C)C)cc2)cc1,"inconclusive: 8.91 µM [inhibitor, partial curve]",–
NS(=O)(=O)c1ccc(CCNc2nc3c(-c4cccc(F)c4)nnn3c3ccc(Cl)cc23)cc1,"inconclusive: 7.94 µM [activator, full curve, poor fit]",–
CCOC(=O)Cc1ccc(NCc2ccc(Cl)cc2)cc1,"inconclusive: 17.8 µM [inhibitor, partial curve]",–
CC1CC(C)CN(c2ccc(C(=O)OCC(=O)NC3CCCc4ccccc43)cc2[N+](=O)[O-])C1 (stereo unspecified),"inconclusive: 14.1 µM [inhibitor, partial curve]",–
COc1cc(CN2CCC(C(=O)N3CCCC(C)C3)CC2)cc(OC)c1O (stereo unspecified),–,inactive: -11.7%
COC(=O)CC1C(=O)NCCN1C(=O)CSc1nnc(Nc2ccc(OC)cc2)s1 (stereo unspecified),–,inactive: -7.91%
CCOc1ccc(C(=O)NCC(=O)OCC(=O)c2ccc3c(c2)-c2ccccc2C3)cc1,"inconclusive: 0.501 µM [inhibitor, full curve]",–
Cc1cc(C)c2nc(NNC(=O)c3cc(-c4cccs4)nc4ccccc34)sc2c1,"inconclusive: 14.1 µM [inhibitor, partial curve]",–
COc1ccc(-c2ccc([C@H]3[C@@H]4C=CCC[C@@]4(C)C(=O)N3Cc3ccccc3)c(F)c2)cc1,–,inactive: -11.2%
C/C(=N/NC(=O)C1CCCCC1)c1ccc([N+](=O)[O-])cc1,–,inactive: -0.212%
COC(=O)c1ccc(NC2(C#N)C(=O)Nc3ccccc32)cc1 (stereo unspecified),"inconclusive: 20 µM [inhibitor, single point]",–
CCOc1ccc(NC(=O)c2ccc(NC(=O)Cc3n[nH]c(=O)c4ccccc34)cc2)cc1,"inconclusive: 1.26 µM [inhibitor, full curve]",–
CC(=O)C1=C(C)NC(SCC(=O)c2ccc(Cl)cc2)=C(C#N)C1CC(C)C (stereo unspecified),"inconclusive: 25.1 µM [inhibitor, partial curve]",–
NC(=O)CSc1nnc(-c2ccc(S(=O)(=O)N3CCCCC3)cc2)n1-c1ccccc1,–,inactive: -11.7%
Cc1oc(-c2ccc(Cl)cc2)nc1Cn1c(=O)cc(-c2ccccc2)c2c(C)nn(C)c21,–,inactive: -4.88%
CCOC(=O)c1ccc(NC(=S)NNC(=O)C2(C)CC2(Cl)Cl)cc1 (stereo unspecified),"inconclusive: 28.2 µM [inhibitor, single point]",–
CN(C)c1ccc(/C=C/c2cccc[n+]2[O-])cc1,–,inactive: -3.76%
COc1ccc(N=C2C(=Nc3ccc(OC)cc3)N(c3ccc(OC)cc3)C(=S)N2C(=O)c2ccc(OC)cc2)cc1,active: 28.2 µM,–
COC(=O)c1ccccc1OCCCOc1ccc(C=O)cc1OC,"inconclusive: 14.1 µM [inhibitor, partial curve]",–
CCOCC(=O)Nc1nnc(COc2ccc(Cl)cc2)s1,"inconclusive: 28.2 µM [inhibitor, single point]",–
O=[N+]([O-])c1ccc(-c2cnc(SC(c3ccccc3)c3ccccc3)[nH]2)cc1,"inconclusive: 3.16 µM [inhibitor, full curve]",–
CC(C)(C)NC(=O)C(=O)NNC(=O)c1ccco1,–,inactive: -1.06%

Compound,Potency,"activity, negative = inhibition"
O=C(CSCc1ccc(Cl)cc1)NN=C1CCCCCC1,–,inactive: -11.4%
Cc1ccsc1/C=N/NC(=O)c1ccc([N+](=O)[O-])cc1,"inconclusive: 2.82 µM [inhibitor, full curve]",–
Cc1ccc(NC2c3ccccc3C(=O)N2CCN2CCOCC2)cc1 (stereo unspecified),–,inactive: -13.1%
CCOc1ccc(C(=O)N/N=C(/C)C2C(=O)c3ccccc3C2=O)cc1,active: 1.78 µM,–
CCOc1ccccc1NC(=O)CSc1cc(=O)n(CC)c2ccccc12,–,inactive: -14.9%
Cc1cccc(OCc2nnc(SCC(=O)N3CCN(C(=O)c4ccco4)CC3)n2C)c1C,"inconclusive: 4.47 µM [inhibitor, partial curve]",–
O=C(CCCCCN1C(=O)CCC1=O)Nc1ccc2c(c1)OCO2,"inconclusive: 25.1 µM [inhibitor, single point]",–
O=C(O)c1cccc(Cn2c(Cl)c(/C=N/NC(=O)c3ccccc3Cl)sc2=O)c1,"inconclusive: 28.2 µM [inhibitor, single point]",–
O=C(CN(Cc1ccc2c(c1)OCO2)C(=O)CNC(=O)c1ccco1)NC1CCCCC1,–,inactive: -5.32%
CC(=O)Nc1ccc(S(=O)(=O)Nc2nc3ccccc3nc2Nc2cccc(S(N)(=O)=O)c2)cc1,"inconclusive: 39.8 µM [inhibitor, single point]",–
CCCCNC(=O)COC(=O)c1c2c(nc3ccccc13)/C(=C/c1cccs1)CC2,"inconclusive: 4.47 µM [inhibitor, full curve]",–
CC(=O)N(C)C1=C(N2CCOCC2)C(=O)c2ccccc2C1=O,"inconclusive: 14.1 µM [inhibitor, partial curve]",–
O=C(NC(=S)N1CCCc2ccccc21)c1ccc(Br)cc1,"inconclusive: 25.1 µM [inhibitor, partial curve]",–
COc1ccc(/C=N/NC(=O)c2ccc(COc3ccccc3Cl)o2)cc1,"inconclusive: 0.708 µM [inhibitor, full curve]",–
COc1ccccc1/C=C1\Cc2ccccc2C1=O,"inconclusive: 15.8 µM [inhibitor, partial curve]",–
COc1cc(OC)cc(-n2c(=O)c3ccccc3n(CC(=O)NCCc3ccc(OC)c(OC)c3)c2=O)c1,–,inactive: -15.9%
Cc1c(Cl)cccc1NC(=O)CSC(N)=O,"inconclusive: 15.8 µM [inhibitor, partial curve]",–
Cc1cc2c(nc1C)CCCN2C[C@H](C)O/N=C\[C@@H](C)[C@H](OCc1ccccc1)C(C)C,–,inactive: -4.62% [at 11.5 µM]
Cc1cccc2[nH]c3c(N4CCC5(CC4)OCCO5)ncnc3c12,"inconclusive: 25.1 µM [inhibitor, partial curve, poor fit]",–
Cn1cccc1-c1cc(C(=O)N/N=C/c2cccc(O)c2)[nH]n1,"inconclusive: 1.78 µM [inhibitor, full curve]",–
CC(=O)c1ccc(NC(=S)NCCc2ccc(S(N)(=O)=O)cc2)cc1,"inconclusive: 28.2 µM [inhibitor, partial curve]",–
CCCCCCCc1nc2sc3c(c2c(=O)n1N)CC(C)(C)OC3,–,inactive: 3.9%
Cc1ccc(C)c(N2CCN(C(=O)c3c4c(nc5ccccc35)C(=O)N(C3CCCCC3)C4)CC2)c1,"inconclusive: 25.1 µM [inhibitor, single point]",–
COc1ccc(NC(=O)c2sccc2SCc2cccc(C(F)(F)F)c2)cc1,–,inactive: -13.6%

Compound,Potency,"activity, negative = inhibition"
Cc1nc(SC2CC(=O)N(c3cc(Cl)cc(Cl)c3)C2=O)nc2c1CCCC2 (stereo unspecified),"inconclusive: 14.1 µM [inhibitor, partial curve]",–
CC1=CC(C)(C)N(S(=O)(=O)c2ccc(C)cc2)c2ccc(C)cc21,–,inactive: -19.3%
O=C(OC(c1ccc(NS(=O)(=O)c2ccccc2)cc1)(C(F)(F)F)C(F)(F)F)c1ccccc1,"inconclusive: 35.5 µM [inhibitor, single point]",–
O=C(O)c1sccc1SCc1ccc(Cl)c(Cl)c1,"inconclusive: 39.8 µM [inhibitor, single point]",–
Cc1ccc(C(=O)O)cc1NC(=O)CCc1ccccc1,–,inactive: -7.42%
CC1CCN(C(=O)c2cc(-c3ccc(Cl)cc3)on2)CC1,–,inactive: -1.37%
COc1ccc(C(=O)/C=C/Nc2ccc([N+](=O)[O-])cc2C)cc1OC,active: 1.58 µM,–
Cc1ccccc1NC(=O)CSc1nc2c(oc3ccccc32)c(=O)n1-c1ccccc1F,"inconclusive: 22.4 µM [inhibitor, single point]",–
CCN(CC)c1ccc(C=Nc2ccccc2C)c(O)c1,"inconclusive: 39.8 µM [inhibitor, single point]",–
Cc1cc(C)nc(SCc2ccc(C(=O)N/N=C/c3ccco3)cc2)n1,"inconclusive: 17.8 µM [inhibitor, partial curve]",–
CCn1nc(C(=O)OCC(=O)N2CC(=O)Nc3ccccc32)c2ccccc2c1=O,–,inactive: -11.3%
COc1ccc(NC(=O)Nc2nnc(N(C)C3CCCCC3)s2)c(OC)c1,"inconclusive: 17.8 µM [inhibitor, single point]",–
O=c1cc(O)c2sc(Nc3ccc(F)cc3)nc2[nH]1,active: 28.2 µM,–
O=C(NCCc1ccccc1)c1c[nH]c2ccc(S(=O)(=O)Nc3ccccc3F)cc2c1=O,–,inactive: -5.82%
CCOC(=O)c1ccc2c(c1)sc(=NC(=O)c1ccco1)n2CCOC,"inconclusive: 1.58 µM [inhibitor, full curve, poor fit]",–
N#CCCN1CCCc2cc(N=Nc3ccc(C(F)(F)F)cc3)ccc21,active: 3.55 µM,–
CCOc1ccc(NC(C)c2cc(Cl)ccc2O)cc1 (stereo unspecified),–,inactive: 3.58%
Oc1cccc(C(=S)N2CCCCC2)c1,"inconclusive: 31.6 µM [inhibitor, single point]",–
CC1CCC2C(=O)N(c3ccc(NC4CCN(Cc5ccccc5)CC4)c([N+](=O)[O-])c3)C(=O)C2C1 (stereo unspecified),"inconclusive: 15.8 µM [inhibitor, partial curve]",–
Cc1cccc(-n2c(=O)c3c(c4cc(C)ccc4n3C)n(Cc3ccccc3F)c2=O)c1,–,inactive: 7.97%
O=C(CSc1ncnc2nc[nH]c12)c1ccc2ccccc2c1,"inconclusive: 3.98 µM [inhibitor, full curve, poor fit]",–
S=c1[nH]nc(-c2cccnc2)n1/N=C/c1ccccc1,–,inactive: -5.14%
CN1C(=O)/C(=C2\SC(N)=NC2=O)c2ccccc21,"inconclusive: 11.2 µM [inhibitor, partial curve]",–
